The antibiotic and cytotoxicity screens of Wong et al. (2023)
Some of the results follow.

How the values were obtained:
[1] = system: HSkMC (human skeletal muscle cells); assay: cytotoxicity call (relative viability < 0.9); settings: 10 µM
[2] = system: HepG2; assay: cytotoxicity call (relative viability < 0.9); settings: 10 µM
[3] = system: S. aureus RN4220; assay: growth inhibition call (relative growth <= 0.2); settings: 50 µM

| Structure (SMILES) | cytotoxicity call [1] | cytotoxicity call [2] | growth inhibition call [3] |
| --- | --- | --- | --- |
| C[C@@H]1CN([C@@H](C)CO)C(=O)c2cc(NC(=O)NC3CCCCC3)ccc2O[C@@H](C)CCCCO[C@@H]1CN(C)Cc1ccncc1 | inactive | inactive | inactive |
| C[C@@H]1CCCCO[C@@H](CN(C)C(=O)c2ccccc2)[C@H](C)CN([C@@H](C)CO)C(=O)c2cc(NC(=O)NC3CCCCC3)ccc2O1 | inactive | inactive | inactive |
| C[C@@H]1CN([C@@H](C)CO)C(=O)c2cc(NS(=O)(=O)c3ccc(F)cc3)ccc2O[C@@H](C)CCCCO[C@H]1CN(C)C(=O)Nc1ccc(F)cc1 | inactive | inactive | inactive |
| O=C(OC1Cc2c(O)cc(O)cc2OC1c1cc(O)c(O)c(O)c1)c1cc(O)c(O)c(O)c1 (centres undefined) | inactive | inactive | inactive |
| Cl.NC(Cc1ccc(Cl)cc1)C(=O)O (racemic) | inactive | inactive | inactive |
| C[C@H]1CN([C@@H](C)CO)C(=O)c2c(c3ccccc3n2C)-c2ccccc2CO[C@@H]1CN(C)Cc1ccc(C(F)(F)F)cc1 | inactive | inactive | inactive |
| COc1ccc(S(=O)(=O)N(C)C[C@H]2Oc3ccc(NC(=O)c4ccncc4)cc3CC(=O)N([C@@H](C)CO)C[C@@H]2C)cc1 | inactive | inactive | inactive |
| C[C@H](CO)N1C[C@H](C)[C@H](CN(C)Cc2ccc3c(c2)OCO3)Oc2c(NS(C)(=O)=O)cccc2C1=O | inactive | inactive | inactive |
| C[C@H](CO)N1C[C@H](C)[C@@H](CN(C)Cc2ccc(C(F)(F)F)cc2)OCCCC[C@H](C)Oc2ccc(NC(=O)Nc3ccccc3)cc2C1=O | inactive | active | inactive |
| C[C@H](CO)N1C[C@H](C)[C@@H](CN(C)Cc2ccc(O)cc2)OCc2ccccc2-c2c(n(C)c3ccccc23)C1=O | inactive | inactive | inactive |
| CC[C@@H](C)CCCCC(=O)N[C@@H](CCN)C(=O)N[C@H](C(=O)N[C@@H](CCN)C(=O)N[C@H]1CCNC(=O)[C@H]([C@@H](C)O)NC(=O)[C@H](CCN)NC(=O)[C@H](CCN)NC(=O)[C@H](CC(C)C)NC(=O)[C@@H](Cc2ccccc2)NC(=O)[C@@H](CCN)NC1=O)[C@@H](C)O | inactive | inactive | inactive |
| Cc1noc(C)c1NC(=O)Nc1ccc2c(c1)C(=O)N([C@@H](C)CO)C[C@H](C)[C@@H](CN(C)C(=O)Nc1ccc(F)cc1)OCCCC[C@H](C)O2 | inactive | inactive | inactive |
| C[C@H](CO)N1C[C@H](C)[C@H](CN(C)S(=O)(=O)c2ccccc2)Oc2c(NS(=O)(=O)c3ccccc3)cccc2C1=O | inactive | inactive | inactive |
| NS(=O)(=O)c1ccc(C(=O)O)cc1 | inactive | inactive | inactive |
| O=C(C[C@@H]1C=C[C@@H](NC(=O)c2cccnc2)[C@@H](CO)O1)NCCN1CCCCC1 | inactive | inactive | inactive |
| Cc1noc(C)c1NC(=O)N(C)C[C@@H]1Oc2ccc(NS(=O)(=O)c3cn(C)cn3)cc2C(=O)N([C@@H](C)CO)C[C@@H]1C | inactive | inactive | inactive |
| COc1cccc(S(=O)(=O)Nc2ccc3c(c2)C(=O)N(C)C[C@H](OC)[C@H](C)CN(C(=O)Cc2cccnc2)[C@@H](C)CO3)c1 | inactive | inactive | inactive |
| C[C@H]1CCCCO[C@@H](CN(C)Cc2ccc(C(F)(F)F)cc2)[C@@H](C)CN([C@@H](C)CO)C(=O)c2cc(NC(=O)c3ccccc3)ccc2O1 | active | active | inactive |
| C[C@@H]1CN([C@@H](C)CO)C(=O)CCCn2cc(nn2)CO[C@@H]1CN(C)S(=O)(=O)c1ccc2c(c1)OCCCO2 | inactive | inactive | inactive |
| CC(=O)N1[C@H](CO)[C@@H](c2ccccc2)[C@@H]1CNC(=O)CN1CCOCC1 | inactive | inactive | inactive |
| CN1CCN(C(=O)[C@@H]2[C@@H](CO)[C@@H]3Cn4c(cccc4=O)[C@H]2N3Cc2ccncc2)CC1 | inactive | inactive | inactive |
| COCCn1cc2c(n1)[C@H](CNC(=O)COC)OCC2 | inactive | inactive | inactive |
| C[C@@H]1CCCCO[C@H](CN(C)Cc2ccccc2)[C@@H](C)CN([C@@H](C)CO)C(=O)c2cc(NC(=O)c3ccncc3)ccc2O1 | inactive | inactive | inactive |
| C[C@@H]1CN([C@H](C)CO)C(=O)c2cc(NC(=O)Nc3ccc(C(F)(F)F)cc3)ccc2O[C@@H](C)CCCCO[C@H]1CN(C)C(=O)c1ccccc1 | active | inactive | inactive |
| C[C@@H]1O[C@@H](O[C@H]2[C@@H](Oc3cc(O)c4c(c3)O[C@H](c3ccc(O)cc3)CC4=O)O[C@H](CO)[C@@H](O)[C@@H]2O)[C@H](O)[C@H](O)[C@H]1O | inactive | inactive | inactive |
| COc1ccc(CN(C)C[C@H]2Oc3ccc(NC(=O)Cn4cnnn4)cc3C(=O)N([C@H](C)CO)C[C@H]2C)cc1 | inactive | inactive | inactive |
| COc1ccc(C#Cc2ccc3c(c2)O[C@@H](CN(C)C(=O)CN2CCOCC2)[C@@H](C)CN([C@@H](C)CO)S3(=O)=O)cc1 | inactive | inactive | inactive |

| Structure (SMILES) | cytotoxicity call [1] | cytotoxicity call [2] | growth inhibition call [3] |
| --- | --- | --- | --- |
| O=C(C[C@@H]1C=C[C@@H](NC(=O)CN2CCOCC2)[C@@H](CO)O1)NC1CCCCC1 | inactive | inactive | inactive |
| Cc1noc(C)c1S(=O)(=O)N(C)C[C@H]1Oc2ccc(NC(=O)Nc3ccc4c(c3)OCO4)cc2C(=O)N([C@H](C)CO)C[C@@H]1C | inactive | inactive | inactive |
| C[C@@H]1CN([C@H](C)CO)C(=O)Cc2cc(NC(=O)Nc3ccc4c(c3)OCO4)ccc2O[C@@H]1CN(C)Cc1ccc(C(=O)Nc2ccccc2N)cc1 | inactive | active | inactive |
| CC1OC(OC2C(Oc3cc(O)c4c(c3)OC(c3ccc(O)cc3)CC4=O)OC(CO)C(O)C2O)C(O)C(O)C1O (centres undefined) | inactive | inactive | inactive |
| C[C@H]1CCCCO[C@@H](CN(C)C(=O)Nc2ccc3c(c2)OCO3)[C@@H](C)CN([C@@H](C)CO)C(=O)c2cc(NC(=O)c3ccccc3)ccc2O1 | inactive | inactive | inactive |
| C[C@H]1CN([C@@H](C)CO)C(=O)Cc2cc(NC(=O)c3ccncc3)ccc2O[C@@H]1CN(C)S(=O)(=O)c1cccs1 | inactive | inactive | inactive |
| O=C(C[C@@H]1CC[C@H]2[C@@H](COC[C@H](O)CN2C(=O)Nc2ccc(C(F)(F)F)cc2)O1)NCCc1ccncc1 | inactive | inactive | active |
| OCc1ccc(-c2cccs2)cc1 | inactive | inactive | inactive |
| CCCn1c(=O)c(C#N)cn(C2CC2)c1=O | inactive | inactive | inactive |
| O=C(C[C@H]1CC[C@H]2[C@@H](COC[C@H](O)CN2S(=O)(=O)c2ccccc2)O1)N1CCOCC1 | inactive | inactive | inactive |
| C[C@@H]1CN([C@@H](C)CO)C(=O)c2ccccc2-c2ccccc2CO[C@@H]1CN(C)Cc1ccc(Cl)c(Cl)c1 | inactive | inactive | inactive |
| C[C@@H]1CN([C@@H](C)CO)S(=O)(=O)c2ccc(C#Cc3ccc(F)cc3)cc2O[C@H]1CN(C)C(=O)c1ccccn1 | inactive | inactive | inactive |
| Cc1ccc(S(=O)(=O)Nc2ccc3c(c2)CC(=O)N([C@H](C)CO)C[C@H](C)[C@@H](CN(C)S(=O)(=O)c2ccccc2)O3)cc1 | inactive | inactive | inactive |
| CCCCCCO[C@H](C)c1c(c/2[nH]c1/C=C/1\N=C(/C=C/3\NC4=C(CC(=O)C4=C3C)C3=N/C(=C2)[C@@H](C)[C@@H]3CCC(=O)O)C(=C1C)CC)C | active | active | inactive |
| COc1ccc(C(=O)Nc2ccc3c(c2)C(=O)N(C)[C@H]2CC[C@@H](CC(=O)NCC4CC4)O[C@H]2CO3)cc1 | inactive | inactive | inactive |
| COc1ccccc1N1C(N)=NC(N)=NC1(C)C | inactive | inactive | inactive |
| COc1ccc(S(=O)(=O)N(C)C[C@H]2Oc3c(NC(=O)C4CC4)cccc3C(=O)N([C@H](C)CO)C[C@H]2C)cc1 | inactive | inactive | inactive |
| COc1ccc2c3c(n(c2c1)C)[C@@H](CO)N(Cc1ccccc1)C[C@]13CCN(CC1)C(=O)c1ccccc1F | inactive | inactive | inactive |
| COc1ccc(NC(=O)Nc2ccc3c(c2)C(=O)N([C@@H](C)CO)C[C@@H](C)[C@@H](CN(C)CC2CC2)OCCCC[C@@H](C)O3)cc1 | inactive | inactive | inactive |
| Cc1ccc(S(=O)(=O)N(C)C[C@H]2Oc3ccc(NC(=O)Nc4ccc(C(F)(F)F)cc4)cc3C(=O)N([C@H](C)CO)C[C@@H]2C)cc1 | inactive | inactive | inactive |
| CCCc1nc2c(=O)n(C)c(=O)[nH]c2n1C | inactive | inactive | inactive |
| C[C@@H]1CN([C@H](C)CO)C(=O)Cc2cc(NC(=O)Nc3ccc(C(F)(F)F)cc3)ccc2O[C@@H]1CN(C)C(=O)Nc1ccc2c(c1)OCO2 | inactive | active | inactive |
| C[C@H]1CCCCO[C@@H](CN(C)C)[C@@H](C)CN([C@@H](C)CO)C(=O)c2cc(NS(=O)(=O)c3cn(C)cn3)ccc2O1 | inactive | inactive | inactive |
| Cc1ccc(S(=O)(=O)N(C)C[C@@H]2Oc3ccc(NC(=O)CCN4CCOCC4)cc3C(=O)N([C@H](C)CO)C[C@@H]2C)cc1 | inactive | inactive | inactive |
| [N-]=[N+]=Nc1ccccc1[C@@H]1OC(c2ccc(OCCCO)cc2)=N[C@]1(CCS(=O)(=O)c1ccccc1)C(=O)NC[C@@H](O)CO | inactive | inactive | inactive |
| C[C@H]1CCCCO[C@H](CN(C)C(=O)C2CCCCC2)[C@@H](C)CN([C@@H](C)CO)C(=O)c2cc(NC(=O)Nc3cccc4ccccc34)ccc2O1 | inactive | inactive | inactive |
